The source gives no read counts; variants with many changes may rest on few reads.

First the molecules themselves.
B1: LINE1-full (parent)
chain: UACGUAGGUGGUUUUCCCCUGAUAGUGCUAAGGGGGCCUGGAAGUUUGGACUGGGCAGAGCUCAACACAGCGUGGCAAAGUGGCUGUGGCUAGACUGCCUCUCUGGAUUCCUCGUCACUCAGCAGGGCAUCUCUGAGAGAAAUGCC

This data set covers variants of B1. As to the kind of experiment: self-cleavage, relative activity (ratio to wild type); higher = more cleavage; in vitro, sequencing; the parent is a self-cleaving ribozyme.
Regarding UACGUAGGUGGUUUUCCCCUGGUAGUGCUAAGGGGGCCUGGAAGUUUGGACUGGGCAGAGCUCAACACAGCGUGGCAAGGUGGCUGUGGCUAGACUGCCUCUCUGGAUUCCUCGUCACUCAGCAGGGCUUCUCCGAGAGGAAUGCC [A22G A79G A129U U134C A140G], the self-cleavage was found to be 0.57. Consider UACGUAGGUGGUUUUCCCCUGGUAGUGCUAAGGGGGCCUGGAAGUUUGGACUGGGCAGAGCUCAACACGGCGUGGCAAAGUGGCUGUGGCUAGACUGCCUCUCUGGAUUCCUCGCCACUCAGCAGGGCGUCUCUGAGAGAAAUGCC [A22G A69G U115C A129G], for which the self-cleavage turned out to be 0. In the case of UACGUAGGUGGUUUUCCCCUGGUAGUGCUAAGGGGGCCUGGAAGUUUGGACUGGGCAGAGCUCAACACAGCGUGGCAAGGUGGCUGUGGCUAGACUGCCUCUCUGGACUCCUCGUCACUCAGCAGGGCAUCUCUGAGAGAAAUGCC [A22G A79G U108C] it was 2.63.

On to UACGUAGGUGGUUUUCCCCUGGUAGUGCUAAGGGGGCCUGGAAGUUUGGACUGGGCAGAGCUCAACUCAGGGUGGCAAAGUGGCUGUGGCCAGACCGCCUCUCUGGAUUCCUCGUCACUCAGCAGGGCAUCUCUGAGAGAAACGCC [A22G A67U C71G U91C U96C U143C], for which the self-cleavage is 0.08. The value for UACGUAGGUGGUUUUCCCCUGGUAGUGCUAAGGGGGCCUGGAAGUUUGGACUGGGCAGAGCUCAACACAGCGUGGCAAGGUGGCUGUGGCUAGACUGCCUCUCUGGAUUCCUCGUCACUCAGCAGGUCAUCUCUGUGAGAAAUGCC [A22G A79G G127U A136U] was 1.03; that for UACGUAGGUGGUUUUCCCCUGGUAGUGCUAAGGGGGCCUGGAAGUUUGGACUGGGCAGAGCUCAACACAGCGUGGCUAAGUGGCUGUGGCUAGACUGCCUCUCUGGAUUCCUCGUCACUCAGCAGGGCAUCUCUGGGAGAAAUACC [A22G A77U A136G G144A] was 1.45. In the case of UACGUAGGUGGUUUUCCCCUGGUAGUGCUAAGGGGGCCUGGAAGUUUGGACUGGGCAGAGCUCAACACGGCGUGGCAAAGUGGCUGUGGCUAGACUGCCCCUCUGGAUUCCUCGUCUCUCAGCAGGGCAUCUCUGAGAGAAAUGCC [A22G A69G U100C A117U] it was 0.97; in that of UACGUAGGUGGUUUUCCCCUGGUAGUGCUAAGGGGGCCUGGAAGUUUGGACUGGGCAGAGCUCAACACAGCGUGGCAAAGUGGCUGUGGCUAGGCUGCCUCUCUGGAUUCCUCGUCACUCAGCAGGGCAUCUCUGAGAGAAGUGCC [A22G A94G A142G], 0.22. In the case of UACGUAGGUGGUUUUCCCCUGGUAGUGCUAAGGGGGCCUGGAAGUUUGGACUGGGCAGAGCUCAACACAGCGUGGCAGAGUGGCUGUGGCUAGACUGCCUCUCUGGAUUCCUCGUCACUCAGCAGGGCAUCUCUGUGAGAAAUGCC [A22G A78G A136U] it was 0.99. With UACGUAGGUGGUUUUCCCCUGGUAGUGCUAAGGGGGCCUGGAAGUUUGGACUGGGCAGAGCUCAACACUGCGUGGCAAAGUGGCUGUGGCUAGACCGCCUCUCUGGAUUCCUCGUCACUCAGCAGGGCAUCUCUGAGAGAAAUGCC [A22G A69U U96C], the self-cleavage worked out at 0.12. The value for UACGUAGGUGGUUUUCCCCUGGUAGUGCUAAGGGGGCCUGGAAGUUUGGACUGGGCAGAGCUCAACACAGCGUGGCAGAGUGGCUGUGGCUGGACUGCCUCUCUGGGUUCCUCGUCACUCAGCAGGGCAUCUCUGAGAGAAAUGCC [A22G A78G A92G A107G] was 0; that for UACGUAGGUGGUUUUCCCCUGGUAGUGCUAAGGGGGCCUGGAAGUUUGGACUGGGCAGAGCUCAACACAGCGUGGCGAAGUGGCUGUGGCUAGACUGCCUCUCUGGAUUCCUCGUCACUCAGCAGGACAUCUCGGAGAGAAAUGCC [A22G A77G G127A U134G] was 1.91. Consider UACGUAGGUGGUUUUCCCCUGGUAGUGCUAAGGGGGCCUGGAAGUUUGGACUGGGCAGAGCUCAACACAGCGUGGCAGAGUGGCUGUGGCUAGACUGCCUCUCUGGAUUCCUCGUUACUCAGCAGGGCAUCUCUGAGGGAAAUGCC [A22G A78G C116U A138G], for which the self-cleavage was determined as 1.09. In the case of UACGUAGGUGGUUUUCCCCUGGUAGUGCUAAGGGGGCCUGGAAGUUUGGACUGGGCAGAGCUCAACACAGCGUGGCAAGGUGGCUGUGGCUAGACUGCCUCUCUGGAUUCCUCGUCACUCAGCAGGGCAACUCUGAGAGAAAUGCC [A22G A79G U130A] it was 2.12; in that of UACGUAGGUGGUUUUCCCCUGGUAGUGCUAAGGGGGCCUGGAAGUUUGGACUGGGCAGAGCUCAACACAGCGUGGCAAAGUGGCUGUGGCUUGACUGCCUCUCUGGAUUCCUCGUCACUCAGCAGGGCAUCUCUGAGAGGAAUGCC [A22G A92U A140G], 1.26.

As to UACGUAGGUGGUUUUCCCCUGGUAGUGCUAAGGGGGCCUGGAAGUUUGGACUGGGCAGAGCUCAACACAGCGUGGCAAAGUGGCUGUGGCUUGACUGCCUCUCUGGAUUCCUCGUCACUCAGCAGGCCAUCUCUGGGAGAAAUGCC [A22G A92U G127C A136G], the self-cleavage stood at 0.53. Regarding UACGUAGGUGGUUUUCCCCUGGUAGUGCUAAGGGGGCCUGGAAGUUUGGACUGGGCAGAGCUCAACUCAGCGUGGCAAAGUGGCUGUGGCUAGACUGCCUCUCUGGAUUCCUCGUCACUCAGAAGGGCAUCUCUGAGAGAAAUGCC [A22G A67U C123A], the self-cleavage was 0.13. The value for UACGUAGGUGGUUUUCCCCUGGUAGUGCUAAGGGGGCCUGGAAGUUUGGACUGGGCAGAGCUCAACACAGCGUGGCAGAGUGGCUGUGGCUAGACUGCCUCUCUGGAUUCCUCGUCUCUCAGCAGGGCAUCCCUGAGAGAAAUGCC [A22G A78G A117U U132C] was 1.08. The value for UACGUAGGUGGUUUUCCCCUGGUAGUGCUAAGGGGGCCUGGAAGUUUGGACUGGGCAGAGCUCAACACGGCGUGGCAAAGUGGCUGUGGUUAGCCUGCCUCUCUGGAUUCCUCGUCACUCAGCAGGGCAUCUCUGAGAGGAAUGCC [A22G A69G C90U A94C A140G] was 0.3. The value for UACGUAGGUGGUUUUCCCCUGGUAGUGCUAAGGGGGCCUGGAAGUUUGGACUGGGCAGAGCUCAACACAGCGUGGCAUAGUGGCUGUGGCUAGACUGCCUCUCUGGAUUCCUCGUCACUCAGCGGGGCAUCUCUGAGAGAGAUGCC [A22G A78U A124G A141G] was 1.87.
